# Assay results as given in the supplement of paper PMC4604168 (melanoma cell lines).
# The list shows a part of the results. Single values are uncertain, as repeats are few or missing.
# Tests used:
# Test in all cases: cell count relative to DMSO control; melanoma cells; higher = more viable cells
# Conditions in all cases: library dose: low library concentration; 72 h
# COLO792 = test system: COLO792
# COLO800 = test system: COLO800
# COLO829 = test system: COLO829
# G361 = test system: G361
# IPC-298 = test system: IPC-298
# IST-MEL1 = test system: IST-MEL1
# LB2518-MEL = test system: LB2518-MEL
# LOXIMVI = test system: LOXIMVI
# MEL-HO = test system: MEL-HO
# MZ2-MEL = test system: MZ2-MEL
# 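Note: cell number obtained by counting DAPI-stained nuclei in high-throughput microscope images with image analysis software, screen run in 1,536-well plates.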
SMILES,cell count (COLO792) [%],cell count (COLO800) [%],cell count (COLO829) [%],cell count (G361) [%],cell count (IPC-298) [%],cell count (IST-MEL1) [%],cell count (LB2518-MEL) [%],cell count (LOXIMVI) [%],cell count (MEL-HO) [%],cell count (MZ2-MEL) [%]
"COc1ccc(COc2ccc(Cc3cnc(N)nc3N)cc2OC)cc1 + Oc1nc(-c2ccc(C(F)(F)F)cc2)nc2c1CSCC2 [XAV939] (first compound 1 µM, partner dose 2 µM)",92.2,147,92.6,89.2,99.2,97.5,99.6,104,104,93.8
"Oc1cc(-c2nc(-c3ccccc3)[nH]c2-c2ccncc2)ccc1Cl + Cc1cc([N+](=O)[O-])ccc1NS(=O)(=O)c1cc(Cl)ccc1Cl [FH535] (first compound 0.2 µM, partner dose 1 µM)",89.3,95.6,83,77,78.8,79.5,95.3,112,68.8,82.1
"Cc1cc([N+](=O)[O-])ccc1NS(=O)(=O)c1cc(Cl)ccc1Cl + COc1cc(N2CCC(N3CCN(C)CC3)CC2)ccc1Nc1ncc(Cl)c(Nc2ccccc2S(=O)(=O)C(C)C)n1 [NVP-TAE684] (first compound 1 µM, partner dose 0.08 µM)",94.5,128,96.5,85.9,92.3,87.3,99.1,116,74.5,98.7
"COc1ccc(COc2ccc(Cc3cnc(N)nc3N)cc2OC)cc1 + Cc1cc([N+](=O)[O-])ccc1NS(=O)(=O)c1cc(Cl)ccc1Cl [FH535] (first compound 1 µM, partner dose 1 µM)",87.7,124,89.6,96.2,93.7,93.5,106,103,97.5,94.8
"O=S(=O)(c1ccccc1)N(CC(F)(F)F)c1ccc(C(O)(C(F)(F)F)C(F)(F)F)cc1 + c1cc(-c2cnn3cc(-c4ccc(OCCN5CCCCC5)cc4)cnc23)ccn1 [Dorsomorphin] (first compound 1.4 µM, partner dose 0.4 µM)",93,127,98.4,98,98.8,109,106,89.8,76.6,99.5
"N#Cc1c(O)c2c(-c3ccc(-c4ccccc4O)cc3)csc2[nH]c1=O + Cc1cc([N+](=O)[O-])ccc1NS(=O)(=O)c1cc(Cl)ccc1Cl [FH535] (first compound 2 µM, partner dose 1 µM)",91.5,97.8,87.6,83.7,99.6,83.6,97.8,75.9,109,98.4
"COC(=O)c1sccc1S(=O)(=O)Nc1ccc(Nc2ccccc2)cc1OC + O=S(=O)(c1ccccc1)N(CC(F)(F)F)c1ccc(C(O)(C(F)(F)F)C(F)(F)F)cc1 [T0901317] (first compound 1 µM, partner dose 1.4 µM)",102,96.9,77.5,99,92.3,103,99.7,128,103,96.8
"COc1ccc(COc2ccc(Cc3cnc(N)nc3N)cc2OC)cc1 + Oc1cc(-c2nc(-c3ccccc3)[nH]c2-c2ccncc2)ccc1Cl [L779450] (first compound 1 µM, partner dose 0.2 µM)",93.1,86.7,121,93.7,83,113,99.7,94.8,93.5,79.2
"Cc1cc([N+](=O)[O-])ccc1NS(=O)(=O)c1cc(Cl)ccc1Cl + CCCCCCCCCCCC1=C(O)C(=O)C=C(O)C1=O [Embelin] (first compound 1 µM, partner dose 1.2 µM)",97.8,98.5,57.9,101,95.8,86.4,99.1,102,84.7,89.4
"Cc1cc([N+](=O)[O-])ccc1NS(=O)(=O)c1cc(Cl)ccc1Cl + O=c1cc(-c2cccc3c2Sc2ccccc2S3)oc(N2CCOCC2)c1 [KU55933] (first compound 1 µM, partner dose 1 µM)",82.3,103,104,85.2,84.5,78.6,110,89.8,80.4,97.9
"COc1ccc(-c2ccc3c(N4CCOCC4)nc(N4C[C@@H](C)O[C@@H](C)C4)nc3n2)cc1CO + CCCCCCCCCCCC1=C(O)C(=O)C=C(O)C1=O [Embelin] (first compound 0.02 µM, partner dose 1.2 µM)",81.9,95.2,107,86.1,88.7,102,104,96.8,89.5,92.7
"O=C(O)C(=O)Nc1sc2c(c1C(=O)O)CCNC2 + CC(C)CCN1c2nc(Nc3cc(F)c(O)c(F)c3)ncc2N(C)C(=O)C1C [BID1870] (first compound 1.66667 µM, partner dose 0.2 µM)",99.9,96.2,98.4,95.4,97.8,108,109,110,91.1,108
"O=S(=O)(c1ccccc1)N(CC(F)(F)F)c1ccc(C(O)(C(F)(F)F)C(F)(F)F)cc1 + O=C(O)C(=O)Nc1sc2c(c1C(=O)O)CCNC2 [TCS401] (first compound 1.4 µM, partner dose 1.66667 µM)",111,114,98,98.6,90.8,103,91.6,139,109,105
"O=S(=O)(c1ccccc1)N(CC(F)(F)F)c1ccc(C(O)(C(F)(F)F)C(F)(F)F)cc1 + Oc1nc(-c2ccc(C(F)(F)F)cc2)nc2c1CSCC2 [XAV939] (first compound 1.4 µM, partner dose 2 µM)",88.5,88.1,91.3,86.7,91.7,93.5,89.6,109,111,98.4
"O=S(=O)(c1ccccc1)N(CC(F)(F)F)c1ccc(C(O)(C(F)(F)F)C(F)(F)F)cc1 + O=c1cc(-c2cccc3c2Sc2ccccc2S3)oc(N2CCOCC2)c1 [KU55933] (first compound 1.4 µM, partner dose 1 µM)",99.6,142,87.8,92.7,93.7,110,122,121,90.7,103
"O=C1NC(=O)/C(=C/c2ccc(-c3ccc(F)cc3O)o2)S1 + Cn1cc(/C=C2\C(=O)Nc3cccnc32)c2ccccc21 [GW441756] (first compound 1 µM, partner dose 0.4 µM)",95.6,140,91.9,111,94.5,112,95,81.5,93.4,95.1
"O=S(=O)(c1ccccc1)N(CC(F)(F)F)c1ccc(C(O)(C(F)(F)F)C(F)(F)F)cc1 + Cc1cc([N+](=O)[O-])ccc1NS(=O)(=O)c1cc(Cl)ccc1Cl [FH535] (first compound 1.4 µM, partner dose 1 µM)",91.2,93.3,75.2,80.6,84.1,102,83.9,107,86.1,96.5
"N#Cc1c(O)c2c(-c3ccc(-c4ccccc4O)cc3)csc2[nH]c1=O + Cn1cc(/C=C2\C(=O)Nc3cccnc32)c2ccccc21 [GW441756] (first compound 2 µM, partner dose 0.4 µM)",108,50.6,82.8,109,102,96.3,106,110,89,97.6
"Cc1cc([N+](=O)[O-])ccc1NS(=O)(=O)c1cc(Cl)ccc1Cl + Cn1cc(/C=C2\C(=O)Nc3cccnc32)c2ccccc21 [GW441756] (first compound 1 µM, partner dose 0.4 µM)",79.4,124,105,95.5,80,83.7,89.7,96.7,76.6,89.9
"CCN(CC)CCCCNc1ncc2cc(-c3cc(OC)cc(OC)c3)c(NC(=O)NC(C)(C)C)nc2n1 + O=S(=O)(c1ccccc1)N(CC(F)(F)F)c1ccc(C(O)(C(F)(F)F)C(F)(F)F)cc1 [T0901317] (first compound 0.1 µM, partner dose 1.4 µM)",92,137,105,98.5,98.9,102,116,91.9,95.9,102
"COc1ccc2c(c1)CCC1C2CCC2(C)C(NCCCCCCN3C(=O)C=CC3=O)CCC12 (stereo not given) + Oc1cc(-c2nc(-c3ccccc3)[nH]c2-c2ccncc2)ccc1Cl [L779450] (first compound 0.4 µM, partner dose 0.2 µM)",108,94.1,111,75.5,73.3,96.9,78.4,100,89.8,71.3
"COc1cc2ncnc(Nc3ccc(Oc4ccccc4)cc3)c2cc1OC + O=C(O)C(=O)Nc1sc2c(c1C(=O)O)CCNC2 [TCS401] (first compound 2 µM, partner dose 1.66667 µM)",96.1,135,149,113,103,107,153,68.7,89,104
"COc1ccc(COc2ccc(Cc3cnc(N)nc3N)cc2OC)cc1 + c1cc(-c2cnn3cc(-c4ccc(OCCN5CCCCC5)cc4)cnc23)ccn1 [Dorsomorphin] (first compound 1 µM, partner dose 0.4 µM)",95.6,114,103,93.1,91.3,91.7,103,93.4,97.1,95.6
"COc1ccc(-c2ccc3c(N4CCOCC4)nc(N4C[C@@H](C)O[C@@H](C)C4)nc3n2)cc1CO + O=C(O)C(=O)Nc1sc2c(c1C(=O)O)CCNC2 [TCS401] (first compound 0.02 µM, partner dose 1.66667 µM)",97.2,112,103,115,95.2,104,109,96,87.2,90.5
